The supplement of paper PMC3334620
The full ranking holds about 33,000 sequences; the median of “E-score (-0.5 to 0.5)” is about -0.017, and the highest 2% start at about 0.3. The list shows a part of the results.

Molecular target: T1, Sut1 (UniProt P53032)
T1 sequence: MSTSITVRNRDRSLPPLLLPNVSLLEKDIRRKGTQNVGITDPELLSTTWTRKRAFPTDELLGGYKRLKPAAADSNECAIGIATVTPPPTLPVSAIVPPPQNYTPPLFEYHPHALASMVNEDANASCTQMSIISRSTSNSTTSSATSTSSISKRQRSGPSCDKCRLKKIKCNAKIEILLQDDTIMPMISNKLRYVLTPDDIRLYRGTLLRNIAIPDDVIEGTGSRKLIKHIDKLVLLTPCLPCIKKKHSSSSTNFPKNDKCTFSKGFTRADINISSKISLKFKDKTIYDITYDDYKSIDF
Experiment: PBM E-score (8-mer binding enrichment) (E-score (-0.5 to 0.5)); higher = stronger / more preferred TF binding; most listed sequences are background and not binding sites
Conditions: protein concentration: 200 nM; construct: GST-full length
Procedure, shortened: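 Yeast transcription factors, full-length or as DNA-binding domains, were expressed with a GST tag using PURExpress in vitro transcription/translation. At about 100-200 nM they were applied to universal all-10-mer Agilent arrays, double-stranded by primer extension on fresh or once-stripped slides. Fluorescent anti-GST detected bound protein, and masliner normalised the scans. E-scores for ungapped eight-base words, pooled with reverse complements, came from the Universal PBM Analysis Suite.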

Sequence | PBM E-score
AGGCACGG | 0.103
ATCTGTCG | -0.0193
CCATGCTA | -0.214
ATCCCTTA | -0.0624
TCTTCAAA | 0.192
AGATTGAT | 0.0147
AAGACGTG | -0.0253
GCATAGTA | -0.0141
CATGTTGA | 0.227
GCCGTCTA | -0.22
AAGGAGCG | -0.235
GTCTGGAA | -0.184
GACGTTAC | -0.13
AAGATGGC | -0.0118
GATATCCC | 0.0559
AATTCACC | 0.113
CAATGTGC | -0.0429
GATATGCA | -0.021
ACGGATCC | 0.0774
ATGATCGA | 0.0913
AGGGTACC | -0.227
GCGACATA | -0.007
GTGCAACA | -0.194
TACCCTAA | -0.117
AGGTTTAT | 0.246

Sequence | PBM E-score
GTGTGATA | 0.0682
CACTTACC | 0.068
GAAGTAAC | 0.0652
TGCCATAA | 0.113
CGGGGAAA | 0.198
CCTGTGCG | -0.131
CAACTTAA | 0.198
CGATGTTA | 0.0817
AGTAGAAA | 0.24
CTACACCC | -0.286
CGGTCGCC | -0.061
GCGGCCAC | -0.128
TCGCACCA | 0.022
CGCACGGA | 0.135
GAGATTAC | 0.0292
ATAATTGA | 0.204
GACGAAGA | 0.124
CCCTCGCG | -0.204
TAGTGCGA | -0.0645
TAGCTTGA | -0.0326
CGTGTAAC | -0.00945
ATCCCTCC | -0.194
TTACCCAA | -0.0695
ACCACACT | -0.00765
CGGTATCC | -0.211

Sequence | PBM E-score
ATAAATAT | 0.341
CTGAGGGC | -0.306
ATAGGAGG | -0.187
TGGAATAA | 0.122
AGTGAGAA | 0.23
AGTACCAT | 0.0576
GCTCGCTA | -0.159
AGCGCGCG | -0.0911
AATTCACT | 0.161
ATCCTCAC | 0.0417
ATTGAAGA | 0.0287
ACAGTCCT | -0.203
AAACCTCG | 0.0173
CAGACATG | -0.16
AGCTACCC | -0.266
ATTATGCC | 0.133
ACAACCGA | 0.194
CGACCGTC | -0.205
CGCACTCC | 0.12
AATTTTTC | 0.184
ACCCGAAT | 0.026
ATCTAAAA | 0.104
CTGATAAC | 0.0944
AACGGACA | 0.24
AGGCGTAC | 0.0598

Sequence | PBM E-score
ACGGAGCC | 0.219
CCTAATGC | -0.221
ACTGACTG | -0.221
TAATACTA | 0.273
ATCCGCAC | -0.0365
ATCTTGCC | -0.0399
CCATAAAG | 0.023
AGACGCAT | -0.0444
GGATACAC | -0.0246
CACAATCA | 0.132
ACAGTGCC | -0.0419
ACCTCGGC | 0.0761
ACTTGTAG | -0.118
GACTTAGC | -0.206
TCCTCGAA | -0.0557
GAAAATTC | 0.123
CGTAAGGC | -0.231
CTAGTTTC | -0.0244
TCCCCGGA | 0.364
GAACCGCC | 0.00633
CAGGGGAA | -0.224
CGTTCGCC | -0.115
ATTGGACC | 0.00836
GCTGGCAC | -0.374
CAGCACCC | -0.162

Sequence | PBM E-score
ATCAAGAG | 0.117
ATTTGTCC | 0.186
ACGTGCGA | -0.248
CTCACCAA | 0.115
ATGGAATC | 0.117
TAGCTATA | -0.0172
CTCATGGC | -0.0874
AAGGACTG | -0.278
GCCCTAAC | 0.106
GTTCCCGA | -0.00112
ACTACATA | 0.137
CTAATCAC | 0.176
CTTTCTCC | 0.034
CTGATGCC | 0.00519
AACCGCAA | 0.116
ACACAGTC | -0.089
CCGTCTAG | -0.123
CCAAAGCC | -0.07
GTCTCTAA | -0.0975
CGGCCACA | 0.00283
ACGACCCA | -0.12
GCATGCTA | -0.141
CATTGATC | 0.0953
ATGTATAC | 0.166
GACGAGCC | -0.22

Sequence | PBM E-score
CGGGCCTA | -0.0439
GAACTTTA | 0.145
CATCCGGG | -0.0527
TTAAACAA | 0.132
CAAAAGGC | -0.106
GGCACGCC | -0.252
CATTTTCC | 0.149
GTATACGA | -0.0202
AATGAACA | 0.107
GCAACAGA | 0.00797
AACCTCAT | 0.0566
ACCACAGG | -0.113
ATCCCGCC | -0.137
ATCTCACG | -0.0224
ATCCTTAG | -0.0491
AGATAGAT | -0.0228
GGCTATAA | 0.0237
CAAAGCGC | 0.0135
ACACGGCG | 0.026
CGGACCAG | 0.196
ACCCGGAT | -0.107
ATGAATGG | 0.157
AGGCTCAA | -0.194
ACGCGTAA | 0.0156
CGCAATTC | 0.0891

Sequence | PBM E-score
CTATCTAC | 0.0306
GCCTGACA | -0.261
TGGAGAAA | -0.00929
TCTGTGCA | -0.0526
TACCAACA | 0.0754
AGTAAGTC | 0.0732
AATCCCGC | 0.0742
CCAATCTA | -0.0455
CGTATACC | -0.263
TAGAGGGA | -0.131
CTGTAAAC | -0.0588
ACGCCACA | -0.012
CTTCCCTC | -0.174
ACCTCCCT | -0.299
ACCGGAGC | 0.353
AAGCAGGT | -0.0614
CGGCATCC | 0.0152
CAACCTCG | -0.0346
CGAATACG | -0.0489
CGCCAGTA | -0.21
GATTCGCC | 0.00954
CAGTTTCC | 0.03
